According to the RNAGym collection of RNA variant scans (doi:10.1093/nar/gkz1192):
Read counts are not given, so values of variants with three or more changes are uncertain.

B1: CPEB3 Ribozyme (parent)
chain: UAACAGGGGGCCACAGCAGAAGCGUUCACGUCGCAGCCCCUGUCAGAUUCUGGUGAAUCUGCGAAUUCUGCUGUAUAUCUC

Variants of: B1
Assay: self-cleavage, relative activity (ratio to wild type); higher = more cleavage; in vitro, sequencing
Outline: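 Barcoded CPEB3 ribozyme mutants, produced by rounds of error-prone PCR, self-cleaved while being transcribed with T7 RNA polymerase for 5 hours at 37°C and during a subsequent 15 min DNase I step before EDTA was added. Sequencing of template-switched cDNA on Illumina gave cleaved and total reads, and DNA sequencing assigned barcodes to variants. Each variant's relative activity is its cleaved/total read fraction divided by the unmutated ribozyme's fraction, averaged across three batches. A variant needed a minimum of 5 reads.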

Variant	self-cleavage
UAACGGGGGGCCACAGCAAAAGCGUUCGCGACGCAGCCCCUGUCAAAUUCUGGUGAAUCCGCGGAUUCUGCUGUAUAUCUC [A5G G19A A28G U31A G46A U60C A64G]	0.05
UAACGGGGGGCCACAGCAGAAACGUUCACAUCGCAGCCCCUGUCAGACUCCGGUGAAUCUGUGAAUUCUGCUAUAUAUCUC [A5G G22A G30A U48C U51C C62U G73A]	0.03
UAACGGGGGGCCACAGCAGAAUCGUUCACGUCGCAGCCCCUGUCAGAUUCUGGUGAAUCCGCGAAUUCUGCUGUAUAUCUC [A5G G22U U60C]	0.3
UAACGGGGGGCCACAGCAGAAGCAUUCACGUCGCAGCCCCUGUCAGAUUCUGGUGAAUCUGAGAAUUCCGCUGUAUAUCUC [A5G G24A C62A U69C]	0.09
UAACGGGGGGCCACAGCAGAAGCGUUCACAUCGCAGCCCCUGUCAGAUUCUGGUGAAUCUGCGAAUUCUGCUGUAUGUCUC [A5G G30A A77G]	0.62
UAACGGGGGGCCACAGCAGAAGCGUUCACACUGCAGCCCCUGUCAGAUUCUGGUGAAUCUGCUAAUUCUGCUGCAUAUCUC [A5G G30A U31C C32U G63U U74C]	0.5
UAACGGGGGGCCACAGCAGAAGCGUUCACCCCGCAGCCCCUGUCAGAUUCUGGAGAAUCUGCGAAUUCUGCUGUAUAUCUC [A5G G30C U31C U54A]	0.13
UAACGGGGGGCCACAGCAGAAGCGUUCACUUCGCGGCCCCUGUCAGAUUCUGGUGAGUCCGCGAAUACUGAUGUAUAUCUC [A5G G30U A35G A57G U60C U67A C71A]	0.06
UAACGGGGGGCCACAGCAGAAGCGUUCACUUCGCAGCCCCUGUCAGAUCCUGGUGAAUCUGCGAAUUCUGCUGUAUAUCUC [A5G G30U U49C]	0.41
UAACGGGGGGCCACAGCAGAAGCGUUCACGUCACAGCCCCUGUCAGAUUCUGGUGAAUCUGCGAUUUCAGCUGUAUAUCUC [A5G G33A A65U U69A]	0.23
UAACGGGGGGCCACAGCAGAAGCGUUCACGUCACAGCCCCUGCCUGAUUCUGGUGAAUCUGCGAAUUAUGCUGUAUAUCUC [A5G G33A U43C A45U C68A]	0.23
UAACGGGGGGCCACAGCAGAAGCGUUCACGUCCCGGCCCCUGUCAGAUUCUGUUGAAUCUGCGAAUUCUGCUAAAUAUCUC [A5G G33C A35G G53U G73A U74A]	0.03
UAACGGGGGGCCACAGCAGAAGCGUUCACGUCUCAGCCCCAGUCAGAUUCUGGAGAGUCUGCGGAUUCUGCUGUAUAUCUC [A5G G33U U41A U54A A57G A64G]	0.08
UAACGGGGGGCCACAGCAGAAGCGUUCACGUCUCAGCCCCUGUCAGACUCUGGUGAAUCUGCGAAUUCUGCUGUAUAUCUC [A5G G33U U48C]	0.26
UAACGGGGGGCCACAGCAGAAGCGUUCACGUCUCAGCCCCUGUCAGAUCCAGGUGAAUCUGCGAAUUCUGCUGUAUAUCUC [A5G G33U U49C U51A]	0.1
UAACGGGGGGCCACAGCAGAAGCGUUCACGUCGCAGCCCCUGUCAAAUUCUGGUGAAUCUGCGAAUUCUGCUGUUUAUCUC [A5G G46A A75U]	0.16
UAACGGGGGGCCACAGCAGAAGCGUUCACGUCGCAGCCCCUGUCAAAUUCUGGUGAAUCUGCGAAUUCUGCUGCAUAUCUC [A5G G46A U74C]	0.39

Variant	self-cleavage
UAACGGGGGGCCACAGCAGAAGCGUUCACGUCGCAGCCCCUGUCAUAUUCUGGUGAAUCUGCAAAUUCUGCUGUAUAUCUC [A5G G46U G63A]	0.34
UAACGGGGGGCCACAGCAGAAGCGUUCACGUCGCAGCCCCUGUCAGAUUCUCGUGGAUCUGCGGAUUCUGCUGUAUAUCUC [A5G G52C A56G A64G]	0.25
UAACGGGGGGCCACAGCAGAAGCGUUCACGUCGCAGCCCCUGUCAGAUUCUGAUGAAUCCGCGAGUUCUGCUGUAUAUCUC [A5G G53A U60C A65G]	0.15
UAACGGGGGGCCACAGCAGAAGCGUUCACGUCGCAGCCCCUGUCAGAUUCUGGUGAAUCUACGAAUCCUGCUGUAUAUCUC [A5G G61A U67C]	0.27
UAACGGGGGGCCACAGCAGAAGCGUUCACGUCGCAGCCCCUGUCAGAUUCUGGUGAAUCUGCGAAUUCUACUGUGUAUCUC [A5G G70A A75G]	0.11
UAACGGGGGGCCACAGCAGAAGCGAUCCCGUCGCAGCCCCUGUCAGAUUCUGGUGAAUCUGCGAAUUCUGCCGUAUAUCUC [A5G U25A A28C U72C]	0.09
UAACGGGGGGCCACAGCAGAAGCGAUCACGUCGCAGCCCCUGUCAGAUUUUGGGGAAUCUGCGAAUUCUGCUGUGUAUCGC [A5G U25A C50U U54G A75G U80G]	0.07
UAACGGGGGGCCACAGCAGAAGCGCUCACGUCGCGGCCCCUGUCGGAUUCUGGUGAAUCUGCGGAUUCUGCUGUAUAUCUC [A5G U25C A35G A45G A64G]	0.4
UAACGGGGGGCCACAGCAGAAGCGCUCACGUCGCGGCCCCUGUCAGGUUCUGGUGAACCUGCGAAUUCUGCUGAAUAUCUC [A5G U25C A35G A47G U58C U74A]	0.29
UAACGGGGGGCCACAGCAGAAGCGCUCACGUCGCGGCCCCUGUCAGAUUUUGGUGAAUCAGCGAAUUCUGCUGUAUAUCUC [A5G U25C A35G C50U U60A]	0.29
UAACGGGGGGCCACAGCAGAAGCGCUCACGUCGCGGCCCCUGUCAGAUUCUGGCGAAUCUGCGAGUUCCGCUGUAUAUCUC [A5G U25C A35G U54C A65G U69C]	0.3
UAACGGGGGGCCACAGCAGAAGCGCUCACGUCGCAGCCCCUGUCAGGUUCUGGUGAAUCUGCGAAUUCUGCUGUGUAUCUC [A5G U25C A47G A75G]	0.08
UAACGGGGGGCCACAGCAGAAGCGCUCACGUCGCAGCCCCUGUCAGAUUCUGGUGAGUCUGCGAACUCUGCUGUAUAUCUC [A5G U25C A57G U66C]	0.27
UAACGGGGGGCCACAGCAGAAGCGCUCACGUUGCAGCCCCUGUCAGAUUCUGGUGAAUCUGCGAAUUCUGCUGUAUAUCUC [A5G U25C C32U]	0.26
UAACGGGGGGCCACAGCAGAAGCGCUCACGUCGUAGCCCCUGUCAGAUUCUGGUGGAUCUGCGAGUUCUGCUAUAUAUCUC [A5G U25C C34U A56G A65G G73A]	0.21
UAACGGGGGGCCACAGCAGAAGCGCUCACGUCGCAGGCCCGGUCAGAUUCCGGUGAAUCUGUGAAUUCAGCUGUAUAUCUC [A5G U25C C37G U41G U51C C62U U69A]	0.06
UAACGGGGGGCCACAGCAGAAGCGCUCACGUCGCAGCCCCUGUCAGAUUCUAGUGAAUCUGCGGAUUCUGCUGUAUAUCUC [A5G U25C G52A A64G]	0.05
